PubChem BioAssay AID485367 (National Center for Advancing Translational Sciences (NCATS), 2010)
About 560 (0.17%) of roughly 330,000 compounds were called active. Inconclusive means that the source gave no clear call. Such entries were picked first, then a sample of the others. Calls come from the whole dose curve; as a rule, active = well fitted inhibition curve with a large enough effect; inconclusive = small, poorly fitted or top-dose-only effect, or effect the other way; inactive = flat fitted curve, though single readings scatter. Potencies of inconclusive entries are left out as doubtful fits. Some structures have more than one record in an assay (separate samples or runs), and their calls can disagree.
Note: nearly all actives have a fitted effect of over 60% in size.
Potency is the fitted concentration of half-maximal effect; tags give direction and shape of the fitted curve.

These compounds were tested against ATP-dependent 6-phosphofructokinase (Trypanosoma brucei brucei) (UniProt O15648) (assay: qHTS Assay to Find Inhibitors of T. brucei phosphofructokinase). Details: T. brucei PFK, ADP-Glo luminescence; series mostly up to 57.5 µM.
Chain of UniProt O15648 (O15648 whole entry, looked up): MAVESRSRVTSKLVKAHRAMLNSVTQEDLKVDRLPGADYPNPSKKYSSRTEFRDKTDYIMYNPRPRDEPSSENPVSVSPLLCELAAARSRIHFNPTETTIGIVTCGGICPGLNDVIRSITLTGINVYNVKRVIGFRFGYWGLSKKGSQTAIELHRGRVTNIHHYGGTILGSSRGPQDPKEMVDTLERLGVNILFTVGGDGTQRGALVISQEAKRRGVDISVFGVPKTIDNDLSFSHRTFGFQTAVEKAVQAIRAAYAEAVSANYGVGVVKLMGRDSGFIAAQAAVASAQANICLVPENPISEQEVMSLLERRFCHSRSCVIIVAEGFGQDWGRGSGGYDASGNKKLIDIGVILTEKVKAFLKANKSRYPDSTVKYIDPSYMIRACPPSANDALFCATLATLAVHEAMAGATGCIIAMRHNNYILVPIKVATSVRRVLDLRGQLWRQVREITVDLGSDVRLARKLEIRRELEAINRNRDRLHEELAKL
How it was run: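 PFK 1.25 nM, F6P 0.5 mM, ATP 0.1 mM, 0.1 M TEA pH 8.0, 5 mM MgCl2, 0.01% Tween20, 0.1% BSA; 45 min RT. ADP-Glo readout. qHTS titration up to 57 uM; curves fitted, compounds curve-classed.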
For `CCCc1cc(SCC(=O)Nc2c(C)n(C)n(-c3ccccc3)c2=O)n2c(nc3ccccc32)c1C#N`, the Potency was inconclusive [falling, full curve]. For `S=C(NNc1ccnc2cc(Cl)ccc12)Nc1ccccc1Cl`, the Potency was “inactive”. `O=C(Nc1cccs1)Nc1ccc(Br)cc1F` was tested, and the Potency was inconclusive [falling, partial curve]. In the case of `Cc1ccc(-c2cc(C(=O)N/N=C/C(Br)=C/c3ccccc3)n[nH]2)o1`, the Potency is reported as inconclusive [activator, partial curve]. For `O=C(/C=C/c1ccccc1)Nc1sc2c(c1C(=O)O)CCC2`, the Potency was inconclusive [activator, single point]. In the case of `O=C(c1ccco1)N1N=C2CCCCCC2C1(O)C(F)(F)F` (configuration not stated), the Potency is reported as “inactive”. With `CC(Oc1cc2oc(=O)c3c(c2cc1Cl)CCC3)C(=O)N1C[C@H]2C[C@@H](C1)c1cccc(=O)n1C2` (some centres not stated) the Potency was inconclusive [falling, single point]. For `Cc1ccc(NC(=O)CN2C(=O)N/C(=C/c3ccccc3OCc3cccc(C(=O)O)c3)C2=O)cc1`, the Potency was inconclusive [falling, single point]. With `CCC(=O)OCCNc1cc(Sc2nc3ccccc3s2)c2nonc2c1[N+](=O)[O-]` the Potency was active: 2.69 µM. In the case of `COc1ccc(OCc2nnc3n2N=C(c2ccccc2)C(CC(=O)O)S3)cc1` (configuration not stated), the Potency is reported as inconclusive [falling, single point]. `CSc1nc(N(CCO)CCO)c2sc3nc(-c4ccco4)c4c(c3c2n1)CCC4` was tested, and the Potency was inconclusive [falling, full curve, poor fit]. For `O=C(NCc1ccco1)c1ccc(S(=O)(=O)N2CCCCC2)cc1`, the Potency was “inactive”. With `COc1ccccc1Nc1n[nH]c(=S)s1` the Potency was inconclusive [falling, single point]. In the case of `O=C1c2c([N+](=O)[O-])cc([N+](=O)[O-])cc2S(=O)N1Cc1ccccc1` (configuration not stated), the Potency is reported as active: 26.9 µM. `O=C(CSc1nc2ccccc2[nH]1)Nc1cc(C(F)(F)F)ccc1N1CCOCC1` was tested, and the Potency was inconclusive [falling, single point]. In the case of `O=C(CN1C(=O)NC2(CCCCC2)C1=O)Nc1ccc(F)cc1`, the Potency is reported as “inactive”. In the case of `COc1cccc(NC(=O)/C=C/c2ccco2)c1`, the Potency is reported as “inactive”. For `CCN(CC)S(=O)(=O)c1ccc(C(=O)OCC(=O)NCc2ccco2)cc1`, the Potency was inconclusive [falling, single point]. `COc1ccc(/C=N/NC(=O)c2cccnc2)cc1CN1CCc2cc(OC)c(OC)cc2C1C` (configuration not stated) was tested, and the Potency was “inactive”. In the case of `Cc1c(Cl)c([N+](=O)[O-])nn1CC(=O)Nc1ccc2c(c1)OCO2`, the Potency is reported as inconclusive [falling, single point]. In the case of `CO/N=C/NC(=O)c1ccc([N+](=O)[O-])c(CS(=O)(=O)c2ccc(Cl)cc2)c1`, the Potency is reported as “inactive”. `COc1ccc2c(CSc3nc4nc(C)cc(C)n4n3)cc(=O)oc2c1` was tested, and the Potency was “inactive”. With `Cc1cc(C)n2c(=S)[nH]nc2n1` the Potency was inconclusive [falling, partial curve]. In the case of `Cc1cccc(COc2ncnc3nc[nH]c23)c1`, the Potency is reported as “inactive”. In the case of `COc1ccc(C(=O)Nc2cccc(-c3cnc4ccccc4n3)c2)cc1`, the Potency is reported as “inactive”. In the case of `CCOC(=O)CSC1=C(C#N)C(=O)NC2(CCCCC2)S1`, the Potency is reported as inconclusive [falling, single point]. `C(=C\c1ccc2ccccc2n1)/c1ccccc1` was tested, and the Potency was “inactive”. For `CC(C)(C)NC(=O)Cc1ccc(Cl)c(Cl)c1`, the Potency was inconclusive [falling, partial curve, poor fit]. With `CCOC(=O)c1sc(=S)n(C)c1NC(=O)c1ccc(OC)cc1` the Potency was inconclusive [falling, partial curve]. With `C=CCN1C(=O)/C(=C/c2ccc(-c3ccc(F)cc3)o2)SC1=S` the Potency was inconclusive [falling, single point]. With `O=C(Nc1ccc(S(=O)(=O)NC2CCCC2)cc1)c1cnccn1` the Potency was inconclusive [falling, partial curve, poor fit]. In the case of `CSCCOC(=O)c1[nH]c2c(c1C)C(=O)CC(c1ccco1)C2` (configuration not stated), the Potency is reported as inconclusive [falling, single point]. With `Cc1c(NN=C(C#N)C#N)c(=O)n(-c2ccccc2)n1C` the Potency was inconclusive [falling, partial curve]. With `Oc1ccccc1N1CCN(c2nnnn2-c2ccccc2)CC1` the Potency was “inactive”. In the case of `CCNc1nc(NCC)n2c(SCC(=O)Nc3ccc(OC)c(OC)c3)nnc2n1`, the Potency is reported as inconclusive [falling, single point]. `O=C(CNC(=O)c1ccco1)NCC(=O)OCc1cccc(C(=O)Oc2ccccc2)c1` was tested, and the Potency was inconclusive [falling, single point]. In the case of `Nc1cc([N+](=O)[O-])ccc1N1C(=O)CCCC1=O`, the Potency is reported as inconclusive [falling, single point]. `CC(=O)c1ccc(NC(=O)CSc2ccc3nnc(-c4ccccn4)n3n2)cc1` was tested, and the Potency was inconclusive [falling, single point]. With `NC(=O)c1c(NC(=O)CSc2nnc(-c3ccco3)n2-c2ccccc2)sc2c1CCC2` the Potency was inconclusive [falling, single point]. In the case of `O=C(NC(Cc1c[nH]c2ccccc12)C(=O)Nc1ccc(OC(F)(F)F)cc1)c1cccs1` (configuration not stated), the Potency is reported as inconclusive [falling, single point]. With `CC1CCN(S(=O)(=O)c2cc3c4c(c2)CCN4C(=O)CC3)CC1` the Potency was inconclusive [falling, single point]. For `COc1cc(/C=C2/C(=O)CNC2=O)ccc1O`, the Potency was inconclusive [activator, partial curve]. `CN(CCNC(=O)CCCOc1cc(=O)n(C)c2ccccc12)Cc1ccccc1` was tested, and the Potency was inconclusive [activator, single point]. `C#CCOCCOCCOCCNc1nc(N2CCN(C(=O)CCCCCCCCCCNC(=O)Cn3cc(CCCCCN)nn3)CC2)nc(N2CCN(C(=O)CCCCCCCCCCNC(=O)[C@@H](CCSC)n3cc(CCO)nn3)CC2)n1` was tested, and the Potency was inconclusive [falling, partial curve]. With `Cc1ccnc(-n2sc3ccccc3c2=O)n1` the Potency was active: 7.57 µM. In the case of `O=C(NCC(c1ccco1)N1CCc2ccccc21)c1ccccc1` (configuration not stated), the Potency is reported as inconclusive [falling, single point]. In the case of `CC1CCN(C(=O)COC(=O)c2ccc3c(c2)OCO3)CC1`, the Potency is reported as “inactive”. For `O=c1cc(/N=C/c2coc3c(ccc4ccccc43)c2=O)[nH]c(=S)[nH]1`, the Potency was inconclusive [activator, partial curve]. `Cc1ccc(Cl)cc1N1CCN(C(c2cccnc2)c2nnnn2C2CCCCC2)CC1` (configuration not stated) was tested, and the Potency was inconclusive [activator, single point]. In the case of `COc1c(C(CC(C)C)OC(C)=O)ccc2c1C(=O)OCc1cc(C)cc(O)c1O2` (configuration not stated), the Potency is reported as “inactive”. In the case of `COc1ccccc1CNC(=O)C1(NC(=O)Nc2ccc(C)cc2)CCCCC1`, the Potency is reported as “inactive”. `CC(/C=C\c1cccnc1)=C/C(=O)O` was tested, and the Potency was active: 15.1 µM. For `O=C(O)C(CCCCN1C(=O)c2ccccc2C1=O)N1C(=O)c2ccccc2C1=O` (configuration not stated), the Potency was inconclusive [falling, single point]. In the case of `CN(C)c1cccc2c(S(=O)(=O)N3CCCC3)cccc12`, the Potency is reported as “inactive”. For `Cc1ccc(N/N=C(\Cc2nc3ccccc3[nH]2)c2ccccc2)cc1`, the Potency was “inactive”. In the case of `COc1ccc(NC(=O)CN(C)C(=O)c2cccc(-n3cccc3)c2)cc1`, the Potency is reported as inconclusive [falling, full curve]. In the case of `O=[N+]([O-])c1ccc2oc(C(O)c3cccc(Cl)c3)cc2c1` (configuration not stated), the Potency is reported as inconclusive [falling, single point]. `O=C1CC(c2ccco2)CC(O)=C1C=Nc1cc(Cl)ccc1Cl` (configuration not stated) was tested, and the Potency was inconclusive [falling, single point]. With `O=C1COc2ccc(N3C(=O)C=CC3=O)cc2N1` the Potency was inconclusive [falling, single point]. With `COCCCNC(=O)/C(C#N)=C/c1ccc(OCC(=O)O)c(OC)c1` the Potency was inconclusive [falling, partial curve]. In the case of `CCCN1C(=O)CC(c2ccco2)Sc2ccccc21` (configuration not stated), the Potency is reported as inconclusive [falling, single point]. `CC/C(=N\NC(=O)Cc1ccc(Br)cc1)c1cccs1` was tested, and the Potency was inconclusive [falling, single point]. `Cc1occc1C(=O)Nc1ccc(OCc2ccccc2)cc1` was tested, and the Potency was inconclusive [falling, single point]. With `O=Cc1ccccc1-n1cccn1` the Potency was “inactive”. `Cc1[nH]c2ccccc2c1C(=O)C(C)OC(=O)c1ccc(Cl)nc1` (configuration not stated) was tested, and the Potency was “inactive”. In the case of `Cc1cc(=O)oc2cc(NS(=O)(=O)c3ccccc3)ccc12`, the Potency is reported as “inactive”. With `CCO/N=C/C1=C(O)C(C(=O)OC)C(C)(C)CC1=O` (configuration not stated) the Potency was inconclusive [falling, single point]. In the case of `O=C(NCC(=O)N1CCN(c2cccc(Cl)c2)CC1)c1ccc(Br)o1`, the Potency is reported as inconclusive [falling, single point]. With `CCn1c2ccccc2c2cc(/C=N/n3c(-c4cc(C)[nH]n4)n[nH]c3=S)ccc21` the Potency was “inactive”. For `Cn1cnnc1SCC(=O)Nc1ccc(OCc2ccccc2)cc1`, the Potency was inconclusive [activator, single point]. In the case of `CCC(C)(NC(=O)Cc1c[nH]c2ccccc12)C(=O)NC1CCCCC1` (configuration not stated), the Potency is reported as “inactive”. For `O=c1c2cc([N+](=O)[O-])ccc2nc(CN2CCN(c3ccccn3)CC2)n1-c1ccccc1F`, the Potency was “inactive”.
